Patent US20140106440A1, “ENHANCED ENZYMATIC CO2 CAPTURE TECHNIQUES ACCORDING TO SOLUTION PKA, TEMPERATURE AND/OR ENZYME CHARACTER” (CO2 SOLUTIONS INC., priority 2011, published 2014)
Like-named read-outs stand apart in the source and are kept apart here.

Test system: thermostable variant of hCA II ('5X' mutant, M5X)
Details: for kOV: 298 K

SMILES | kOV (alkanolamine concentration 1.0 kmol m^−3, M5X 50 mg/L) | kOV (alkanolamine concentration 1.0 kmol m^−3, M5X 100 mg/L) | kOV (alkanolamine concentration 1.0 kmol m^−3, M5X 400 mg/L) | kOV (alkanolamine concentration 2.0 kmol m^−3, M5X 50 mg/L) | kOV (alkanolamine concentration 2.0 kmol m^−3, M5X 100 mg/L) | kOV (alkanolamine concentration 2.0 kmol m^−3, M5X 200 mg/L) | kOV (alkanolamine concentration 2.0 kmol m^−3, M5X 400 mg/L) | k3* (least squares method, 5X CA) | k4* (least squares method, 5X CA)
CN(C)CCO [DMMEA, dimethylethanolamine] | 169 s⁻¹ | 325 s⁻¹ | 1045 s⁻¹ | 194 s⁻¹ | 341 s⁻¹ | 638 s⁻¹ | 1082 s⁻¹ |  | 
NCCO [MEA, monoethanolamine] |  |  |  |  |  |  |  | 0.057 m^6 · mol^−1 · kg^−1 · s^−1 | 0.040 m^3 · kg^−1
